Laboratory results from PubChem BioAssay AID1671193 (National Center for Advancing Translational Sciences (NCATS), 2021).
“And” between values parts separate entries of the source, which are not always exact repeats. Equal entries are not always repeated. The campaign covered roughly 150,000 compounds. About 180 (0.12%) were called active. Inconclusive results, whose numbers are uncertain, are shown with a selection of clear calls. Calls follow the shape of the dose curve; as a rule, active = well fitted cell-killing curve with a large enough effect; inconclusive = small, poorly fitted or top-dose-only effect, or effect the other way; inactive = flat fitted curve, though single readings scatter. A potency beside an inconclusive call is a rough fit, not a confirmed value.

assay: GF-AFC viability counterscreen for inhibitors of alpha-synuclein gene (SNCA) expression; details: HEK-293-SNCA-luc viability, GF-AFC fluorescence, 24 h; activity change, negative = cytotoxicity: at 57.1 µM (top of the series) unless noted; also: nearly all actives have a fitted effect of over 30% in size;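 as to activity change, negative = cytotoxicity: 0% = DMSO-treated cells and -100% = medium-only wells without cells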
In short: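 HEK-293-SNCA-luc cells (1500/well) plated 24 h, then exposed 24 h to a dilution series; GF-AFC added 30 min at 37C, fluorescence 405/540 nm; normalised to medium-only and DMSO wells, Hill fit.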
Potency is read from the fitted curve at half-maximal effect; tags tell the direction and shape of the fitted curve.

SMILES | Potency | activity change, negative = cytotoxicity
CCc1noc([C@@H]2CC(F)(F)CN2C(=O)c2ccnn2C)n1 | inconclusive: 35.5 µM [cytotoxic, single point] | 
O=C(NCCc1ccc(F)cc1)c1nc2cccnc2n(Cc2ccccc2)c1=O |  | inactive: -6.9%
COc1ccccc1CCC(=O)N1CCC2(CC1)N=C(c1ccc(C)cc1)NO2 | inconclusive: 11.2 µM [rising, partial curve, poor fit] | 
COCCn1c(=O)c(-c2ccc(OC)cc2)nc2cnc(N3CCN(C)CC3)nc21 | inconclusive: 17.8 µM [rising, partial curve, poor fit] | 
COCCn1c(C)nnc1-c1cc(-c2ccnc(OC)c2)ccn1 |  | inactive: 3.42% [at 87.6 µM]
N[C@@H]1CCN(C(=O)c2ccccc2OC(F)(F)C(F)F)C[C@H]1O |  | inactive: 1.26%
CCOC(=O)c1nc(Nc2ccc(C(=O)OC(C)C)cc2)c2ccccc2n1 | inconclusive: 15.8 µM [cytotoxic, partial curve, poor fit] | 
COc1cc(-c2ncn(/C=C\C(=O)OC(C)C)n2)cc(C(F)(F)F)c1 | inconclusive: 2.38 µM [cytotoxic, full curve, poor fit] | 
COc1ccc(Cl)c(Nc2nc3ccccc3nc2NS(=O)(=O)c2cccc(NC(=O)C(C)(C)N)c2)c1 | inconclusive: 21.2 µM [cytotoxic, partial curve, poor fit] | 
Cc1noc(-c2ccc3c(c2)OCO3)c1C(=O)NCCCOC(C)C |  | inactive: -13.6%
O=C(NCCc1ccccc1)N(C1CCOCC1)C1CCN(Cc2cccc(F)c2)CC1 | inconclusive: 35.5 µM [rising, partial curve, poor fit] | 
COc1ccc(Cl)cc1NC(=O)Cn1ccn(-c2cc(C)cc(C)c2)c(=O)c1=O | inconclusive: 15.8 µM [cytotoxic, partial curve] | 
CCn1cc(C(=O)NCCc2ccc(OC)c(OC)c2)c(=O)c2cc(S(=O)(=O)N(C)C3CCCCC3)ccc21 | inconclusive: 5.62 µM [cytotoxic, partial curve, poor fit] | 
COc1ccc(CCC(=O)N2CCCC(n3c(C)cnc3C3CCOCC3)C2)cc1 (stereo unspecified) | inconclusive: 25.1 µM [cytotoxic, partial curve] | 
Cc1cc(C)c(NC(=O)Cn2c(=O)n(-c3ccc(F)cc3)c(=O)c3c(C)c(C(=O)N(C)C)sc32)c(C)c1 |  | inactive: 13.1%
COc1ccc(CNC(=O)c2nc(S(=O)(=O)Cc3ccccc3)ncc2Cl)cc1 | active: 25.1 µM | 
COCCNC(=O)c1coc(COc2ccc3c(c2)C(c2ccc(C)cc2)N(C(=O)C2CC2)CC3)n1 (stereo unspecified) |  | inactive: 8.49%
Cc1ccc(CN2CCC(N3CC4CCCN4C3=O)CC2)cc1 (stereo unspecified) |  | inactive: 2.65% [at 87.6 µM]
O=C(NC1CCCCC1)N1CCC(Cc2nncn2CC2CC2)CC1 |  | inactive: -4.55%
Cc1[nH]nc2ccc(-c3cncc(OC[C@@H](N)Cc4ccccc4)c3)cc12 | inconclusive: 4.29 µM [cytotoxic, partial curve] and active: 9.47 µM | 
O=C(Nc1cc(F)cc(F)c1)Nc1cccc(-c2ccc(N3CCOCC3)nn2)c1 | inconclusive: 31.6 µM [cytotoxic, single point] | 
c1cc2nnc(C3CCC3)n2nc1NCC1CCCO1 (stereo unspecified) |  | inactive: -1.38%

SMILES | Potency | activity change, negative = cytotoxicity
O=C(Cc1cccc(O)c1)N1CC(CNc2ccccc2)C2(C1)CN(c1ccccc1)C2 (stereo unspecified) | inconclusive: 39.8 µM [cytotoxic, single point] | 
Cc1cc(C(=O)NC[C@@H]2CC[C@H]3C[C@@H]2C3(C)C)ccc1Cl |  | inactive: -11.5% [at 87.6 µM]
Cc1nn(C)c(C)c1S(=O)(=O)N1CCCC(C(=O)N2CCCn3nc(-c4ccc(F)cc4)cc3C2)C1 (stereo unspecified) |  | inactive: -29.5%
CC(C)OCCCNC(=O)CSc1c2c(nc3ccc(Cl)cc13)CCCC2 | inconclusive: 28.2 µM [cytotoxic, single point] | 
c1ccc2ncc(CNC[C@H]3Cn4c(-c5ccc6c(c5)OCCO6)cnc4CO3)cc2c1 | inconclusive: 35.5 µM [cytotoxic, single point] | 
CC1(C(=O)NCc2ccc(F)cc2)CCCc2cnc(Nc3cccnc3)nc21 (stereo unspecified) |  | inactive: -14.4% [at 87.6 µM]
CCOc1cc(C2Sc3ccccc3NC3=C2C(=O)c2ccccc23)ccc1O (stereo unspecified) | inconclusive: 28.2 µM [cytotoxic, partial curve, poor fit] | 
O=C(CCCn1c(=O)c2cccn2c2ccccc21)Nc1cccc(Cl)c1 | inconclusive: 25.1 µM [cytotoxic, partial curve, poor fit] | 
COc1ccc(NC(=O)c2ccco2)cc1NC(=O)C(C)Oc1ccc(Cl)cc1Cl (stereo unspecified) | inconclusive: 22.4 µM [cytotoxic, partial curve] | 
COc1cccc(-c2nc(N3CCOCC3)cc3c2CN(C)C3=O)c1OC | inconclusive: 10 µM [cytotoxic, full curve, poor fit] | 
Cc1nn2c(c1-c1ccccc1C(C)C)N(C(=O)Cc1ccccn1)CCC2 | inconclusive: 22.4 µM [cytotoxic, partial curve] | 
CC1=C[C@@H](CNC(=O)c2ccccn2)[C@H](C(C)C)C[C@H]1Cc1nnc(-c2ccncc2)o1 |  | inactive: -28.2% [at 87.6 µM]
CCn1ccnc1CN(C)Cc1cn(Cc2ccccc2)nc1-c1cc2ccccc2o1 | inconclusive: 31.6 µM [cytotoxic, single point] | 
COc1ccc(CO[C@H]2COCCN(c3nc4ccccc4s3)C2)cc1 |  | inactive: 0.019% [at 87.6 µM]
CC1=C[C@@H](CNC(=O)c2ccco2)[C@H](C(C)C)C[C@H]1CC(=O)N(C)Cc1ccccc1 | inconclusive: 6.31 µM [cytotoxic, full curve] | 
Cc1ccc(Cn2ccn(Cc3cccc(C(F)(F)F)c3)c(=O)c2=O)cc1 | inconclusive: 7.08 µM [cytotoxic, single point] | 
Cc1cccc(NC(=O)c2ccc3c(c2)N(C)C2CCCN2C3=O)c1C (stereo unspecified) | inconclusive: 3.16 µM [rising, single point] | 
Cc1cccc(OCC(=O)N[C@@H]2CN(c3ncccn3)C[C@H]2CN(C)C)c1 |  | inactive: -10.8%
Cc1cc(F)c(C(=O)Nc2cccc(-c3nncn3C(C)C)n2)cc1-n1cnc(C2CC2)c1 | inconclusive: 7.33 µM [cytotoxic, partial curve, poor fit] | 
CC(C)NC(=O)N1CCC(N2C(=O)C3(CCCC3)C2c2ccccc2)CC1 (stereo unspecified) |  | inactive: 0.0375% [at 12.5 µM]
COc1cccc(NCCC2(c3ccccc3)CC(C)(C)OC(C)(C)C2)c1 | inconclusive: 8.44 µM [rising, single point] | 
COc1ccc(Cn2c(C(=O)O)c(CNCCc3cccs3)c3ccc(OC)cc32)cc1 | inconclusive: 39.8 µM [cytotoxic, single point] | 

SMILES | Potency | activity change, negative = cytotoxicity
C[C@H]1[C@H](O)O[C@@H]2O[C@@]3(C)CC[C@H]4[C@H](C)CC[C@@H]1[C@@]24OO3 | inconclusive: 10.6 µM [cytotoxic, partial curve, poor fit] | 
COc1ccc(-c2nnc([C@H]3CCN(Cc4ccccc4Cl)C3)o2)cc1 |  | inactive: -8.46% [at 87.6 µM]
O=C(Nc1ccc(Cl)cc1Cl)c1cccn2cncc12 |  | inactive: 2.43% [at 87.6 µM]
Cc1cnc(C2CCC2)n1CC1CCN(C(=O)CCc2ccccc2)CC1 | inconclusive: 39.8 µM [cytotoxic, single point] | 
COC(=O)c1c(C)sc(-c2c(-c3ccc(F)cc3)[nH]c3[nH]c(=O)[nH]c(=O)c23)c1O | inconclusive: 1.12 µM [cytotoxic, full curve, poor fit] | 
COc1cccc(Nc2ncc3c(n2)C(C)(C(=O)NCC2CC2)CC3)c1 (stereo unspecified) | inconclusive: 28.2 µM [cytotoxic, partial curve, poor fit] | 
CCN1c2cc(C(=O)Nc3ccc4c(c3)CCC4)ccc2C(=O)N2CCCCC21 (stereo unspecified) |  | inactive: -6.81% [at 12.5 µM]
CCc1cc(=O)n(CC(=O)Nc2cccc(C(C)=O)c2)c(N2CCOCC2)n1 |  | inactive: -8.69%
O=C(Nc1cc(-c2ccccn2)nn1-c1ccccc1)c1ccc(Cl)cc1 |  | inactive: -2.56%
CCCN(CCC)CC(O)Cn1cc(/C=C/C(=O)c2ccc(OCC)cc2)c2ccccc21 (stereo unspecified) | inconclusive: 17.8 µM [rising, single point] | 
Cc1ccc(-c2cc(C(=O)NCC(F)F)c3cnn(C)c3n2)c(C)c1 |  | inactive: 8.96% [at 87.6 µM]
COc1cccc(-c2ccc(CN3CCCC(NC(=O)c4ccccc4)C3)cc2)c1 (stereo unspecified) |  | inactive: -21.4%
CCCCCn1c(=N)n(CC(O)COc2cccc(C)c2)c2ccccc21 (stereo unspecified) | inconclusive: 39.8 µM [cytotoxic, single point] | 
O=C(Cc1ccc(Br)cc1)NCc1nnc2ccc(-c3ccc(F)cc3)nn12 |  | inactive: 15.3%
O=C(NCc1ccccc1F)C1CCN(C(=O)c2ncn3c2COC(c2ccc(F)cc2)C3)CC1 (stereo unspecified) |  | inactive: 2.29%
Cc1ccc(C2Cn3nnc(C(=O)N4CCN(C(=O)c5cccc(Cl)c5)CC4)c3CO2)cc1 (stereo unspecified) |  | inactive: 5.51%
COCC1CN(C(=O)NCCc2ccccc2)CC12CCNCC2 (stereo unspecified) | inconclusive: 22.4 µM [cytotoxic, partial curve, poor fit] | 
COc1ccccc1C1C=C(c2ccc(Cl)cc2)Nc2nc(-c3ccc(Cl)cc3)nn21 (stereo unspecified) | inconclusive: 28.2 µM [rising, partial curve] | 
CS(=O)(=O)N1CCC(OC2CCN(C(=O)c3cccnc3)CC2)CC1 | inconclusive: 25.1 µM [rising, single point] | 
Cc1cnc(C)n1C1CCN(S(=O)(=O)c2ccccc2)CC1 | inconclusive: 3.55 µM [rising, single point] | 
O=C(Nc1ccccc1C(F)(F)F)N1CCN(c2ccc3nnc(-c4ccc(F)cc4)n3n2)CC1 | inconclusive: 10 µM [cytotoxic, full curve, poor fit] | 
COc1ccc(C(=O)N[C@@H]2C=C[C@@H](c3c(C)nn(-c4ccc(C)c(Cl)c4)c3C)C2)cc1 | inconclusive: 25.1 µM [cytotoxic, partial curve, poor fit] | 
